The record followed here is the antibiotic and cytotoxicity screens of Wong et al. (2023).

This is one part of the list.

In one assay the test system is HSkMC. As to the kind of experiment: cytotoxicity call (relative viability < 0.9). The note with it: 10 µM.
The next assay relates to HepG2. Kind of assay: cytotoxicity call (relative viability < 0.9). Conditions: 10 µM.
A further assay deals with S. aureus RN4220. Kind of assay: growth inhibition call (relative growth <= 0.2). Conditions: 50 µM.

For `Cc1ccc(S(=O)(=O)Nc2ccc3c(c2)C(=O)N([C@@H](C)CO)C[C@H](C)[C@H](CN(C)C(=O)c2ccccc2)OCCCC[C@@H](C)O3)cc1`, the cytotoxicity call in the assay on HSkMC and in the assay on HepG2 was “inactive” in each case. In addition, the growth inhibition call with S. aureus RN4220 was “inactive”.
In the case of `COCC#Cc1ccc2c(c1)O[C@@H](CN(C)C(=O)C1CCCCC1)[C@H](C)CN([C@@H](C)CO)S2(=O)=O`, the cytotoxicity call in the assay with HSkMC and with HepG2 was “inactive” each time. The growth inhibition call with S. aureus RN4220 is “inactive”.
`CCN(CC)C(=O)c1cccc(C)c1`: the cytotoxicity call in the assay on HSkMC and with HepG2 was “inactive” throughout. Moreover, the growth inhibition call with S. aureus RN4220 was “inactive”.
With `COc1ccc(NC(=O)Nc2ccc3c(c2)CC(=O)N([C@H](C)CO)C[C@H](C)[C@H](CN(C)C(=O)Nc2cccc4ccccc24)O3)cc1`, the cytotoxicity call with HSkMC and in the assay with HepG2 was “inactive” throughout. Moreover, the growth inhibition call with S. aureus RN4220 was “inactive”.
`C[C@H](CO)N1C[C@H](C)[C@H](CN(C)S(=O)(=O)c2ccccc2)Oc2cc(C#Cc3ccncc3)ccc2S1(=O)=O`: the cytotoxicity call in the assay with HSkMC is “inactive”. Also, in the assay with HepG2, the cytotoxicity call is “active”. The growth inhibition call in the assay with S. aureus RN4220 is “inactive”.
Consider `CO[C@H]1CN(C)C(=O)c2cc(NC(=O)CC(F)(F)F)ccc2OC[C@H](C)N(C(=O)C2CCOCC2)C[C@@H]1C`, for which the cytotoxicity call in the assay with HSkMC and in the assay with HepG2 was “inactive” throughout. Further, the growth inhibition call in the assay on S. aureus RN4220 was “inactive”.
For the compound `C[C@@H]1CN([C@@H](C)CO)S(=O)(=O)c2ccc(C3=CCCCC3)cc2O[C@H]1CN(C)Cc1cncnc1`, the cytotoxicity call in the assay with HSkMC and in the assay with HepG2 was “inactive” throughout. In addition, the growth inhibition call in the assay with S. aureus RN4220 is “inactive”.
As for `C[C@@H]1CN([C@@H](C)CO)C(=O)c2cc(NC(=O)Nc3ccc(C(F)(F)F)cc3)ccc2O[C@@H](C)CCCCO[C@H]1CN(C)Cc1ccccc1`, the cytotoxicity call with HSkMC and with HepG2 was “active” each time. Further, in the assay on S. aureus RN4220, the growth inhibition call was “inactive”.
`C[C@H]1CN([C@@H](C)CO)C(=O)c2cc(NC(=O)Cc3cn(C)c4ccccc34)ccc2O[C@@H]1CN(C)C(=O)Nc1ccc(C(F)(F)F)cc1`: in the assay on HSkMC, the cytotoxicity call was “inactive”. Also, the cytotoxicity call with HepG2 is “active”. Besides, in the assay with S. aureus RN4220, the growth inhibition call was “inactive”.
In the case of `CCNC(=O)NC(=O)COC(=O)CNC(=O)COc1ccccc1`, the cytotoxicity call in the assay with HSkMC and with HepG2 was “inactive” in each case. The growth inhibition call with S. aureus RN4220 is “inactive”.
For `CC1(C)CC[C@]2(C(=O)O[C@@H]3O[C@H](CO)[C@@H](O[C@H]4OC[C@](O)(CO)[C@H]4O)[C@H](O)[C@H]3O)CC[C@]3(C)C(=CC[C@H]4[C@@]5(C)C[C@@H](O)[C@H](O)[C@@](C)(CO)[C@@H]5[C@H](O)C[C@]43C)[C@@H]2C1`, the cytotoxicity call with HSkMC and in the assay on HepG2 was “inactive” each time. Also, in the assay with S. aureus RN4220, the growth inhibition call was “inactive”.
As for `C[C@@H]1CCCCO[C@H](CN(C)Cc2ccncc2)[C@@H](C)CN([C@@H](C)CO)C(=O)c2cc(NC(=O)Nc3cccc4ccccc34)ccc2O1`, the cytotoxicity call with HSkMC and with HepG2 was “inactive” in each case. Also, the growth inhibition call in the assay on S. aureus RN4220 is “inactive”.
Take `COC(=O)C[C@@H]1CC[C@@H]2[C@H](COC[C@H](O)CN2S(=O)(=O)c2ccc(F)cc2)O1`: the cytotoxicity call in the assay with HSkMC and with HepG2 was “inactive” throughout. In the assay with S. aureus RN4220, the growth inhibition call is “inactive”.
With `COc1ccc(S(=O)(=O)Nc2cccc3c2O[C@@H](CN(C)C(=O)NC(C)C)[C@H](C)CN([C@H](C)CO)C3=O)cc1`, the cytotoxicity call with HSkMC and in the assay with HepG2 was “inactive” each time. For the same compound, in the assay on S. aureus RN4220, the growth inhibition call was “inactive”.
`CC(C)NC(=O)N(C)C[C@@H]1Oc2ccc(NC(=O)Cn3cnnn3)cc2C(=O)N([C@@H](C)CO)C[C@H]1C`: the cytotoxicity call in the assay with HSkMC and in the assay with HepG2 was “inactive” throughout. For the same compound, the growth inhibition call in the assay with S. aureus RN4220 was “inactive”.
Take `CO[C@H]1C[C@@H]2CC[C@@H](C)[C@@](O)(O2)C(=O)C(=O)N2CCCC[C@H]2C(=O)O[C@H]([C@H](C)C[C@@H]2CC[C@@H](OCCO)[C@H](OC)C2)CC(=O)[C@H](C)/C=C(\C)[C@@H](O)[C@@H](OC)C(=O)[C@H](C)C[C@H](C)/C=C/C=C/C=C/1C`: the cytotoxicity call in the assay on HSkMC and in the assay with HepG2 was “inactive” each time. Further, the growth inhibition call in the assay on S. aureus RN4220 was “inactive”.
For the compound `Cc1cc(O)n(CCCO)c(=O)c1C#N`, the cytotoxicity call in the assay with HSkMC and in the assay on HepG2 was “inactive” throughout. In addition, the growth inhibition call in the assay with S. aureus RN4220 is “inactive”.
On to `CN1C(=O)c2cc(NC(=O)c3ccc(F)cc3)ccc2OC[C@@H]2O[C@@H](CC(=O)N3CCOCC3)CC[C@@H]21`, for which the cytotoxicity call in the assay with HSkMC and in the assay on HepG2 was “inactive” throughout. In addition, the growth inhibition call in the assay with S. aureus RN4220 was “inactive”.
Turning to `COc1ccccc1C#Cc1cnc2c(c1)C(=O)N([C@H](C)CO)C[C@H](C)[C@H](CN(C)C(=O)c1ccc3c(c1)OCO3)O2`, the cytotoxicity call in the assay with HSkMC and in the assay with HepG2 was “inactive” each time. Further, the growth inhibition call in the assay on S. aureus RN4220 was “inactive”.
Take `COc1cc(OC)c2c(c1Cl)OC1(C2=O)C(O)=CC(=O)CC1C` (stereo not given): the cytotoxicity call in the assay with HSkMC and in the assay on HepG2 was “inactive” in each case. In addition, the growth inhibition call in the assay on S. aureus RN4220 is “inactive”.
`Cc1noc(C)c1S(=O)(=O)Nc1cccc2c1O[C@@H](CN(C)Cc1ccc(C(=O)O)cc1)[C@@H](C)CN([C@@H](C)CO)C2=O`: the cytotoxicity call with HSkMC and in the assay on HepG2 was “inactive” throughout. The growth inhibition call in the assay with S. aureus RN4220 is “inactive”.
Consider `COc1ccc(CCNS(=O)(=O)c2cn(C)c(=O)n(C)c2=O)cc1`, for which the cytotoxicity call in the assay on HSkMC (human skeletal muscle cells) and in the assay with HepG2 was “inactive” each time. Further, the growth inhibition call in the assay with S. aureus RN4220 was “inactive”.
With `COCC(=O)Nc1ccc2c(c1)C(=O)N(C)[C@@H]1CC[C@@H](CC(=O)N3CCc4ccccc4C3)O[C@@H]1CO2`, the cytotoxicity call with HSkMC and in the assay on HepG2 was “inactive” throughout. In addition, the growth inhibition call in the assay on S. aureus RN4220 is “inactive”.
On to `NCC[C@H]1CC[C@H](NC(=O)C2CC2)[C@@H](CO)O1`, for which the cytotoxicity call with HSkMC and in the assay on HepG2 was “inactive” throughout. In addition, in the assay on S. aureus RN4220, the growth inhibition call is “inactive”.
In the case of `O=C(NCCCN1CCOCC1)Nc1ccc(Cc2ccc(NC(=O)NCCCN3CCOCC3)cc2)cc1`, the cytotoxicity call in the assay with HSkMC and in the assay with HepG2 was “inactive” in each case. In addition, the growth inhibition call in the assay with S. aureus RN4220 was “inactive”.
